Results taken from the supplement of paper PMC8728848.
The other results are listed elsewhere or left out.

Tests used:
Experiment in all cases: glycan array binding signal (z-score within array); higher = stronger binding
Details in all cases: glycan notation: IUPAC condensed, linker removed
[1] = target: Neu5Ac(a2-3)Gal(b1-4)GlcNAc(b1-3)Gal(b1-4)GlcNAc(b1-3)Gal(b1-4)GlcNAc
How it was run: (§1)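 Glycan array data came from 3228 arrays in the Consortium for Functional Glycomics database, and only arrays with an available protein sequence were kept. Glycan names were put into IUPAC-condensed notation, and columns mapping to the same glycan were averaged. The binding signal is a within-array Z-score, averaged across arrays of one protein sequence run at different concentrations or buffers and across linkers. A negative Z-score can be read as non-binding.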

[2] = target: Neu5Ac(a2-3)Gal(b1-4)GlcNAc(b1-3)Gal(b1-4)[Fuc(a1-3)]GlcNAc
How it was run: as §1

[3] = target: Neu5Ac(a2-3)Gal(b1-4)GlcNAc(b1-3)GalNAc
How it was run: as §1

[4] = target: Neu5Ac(a2-3)Gal(b1-4)GlcNAc(b1-6)[Gal(b1-3)]GalNAc
How it was run: as §1

[5] = target: Neu5Ac(a2-3)Gal(b1-4)GlcNAc(b1-6)[Neu5Ac(a2-3)Gal(b1-3)]GalNAc
How it was run: as §1

[6] = target: Neu5Ac(a2-3)Gal(b1-4)GlcNAc6S
How it was run: as §1

[7] = target: Neu5Ac(a2-3)Gal(b1-4)[Fuc(a1-3)]GlcNAc
How it was run: as §1

[8] = target: Neu5Ac(a2-3)Gal(b1-4)[Fuc(a1-3)]GlcNAc(b1-3)Gal
How it was run: as §1

[9] = target: Neu5Ac(a2-3)Gal(b1-4)[Fuc(a1-3)]GlcNAc(b1-3)Gal(b1-4)GlcNAc
How it was run: as §1

[10] = target: Neu5Ac(a2-3)Gal(b1-4)[Fuc(a1-3)]GlcNAc(b1-3)Gal(b1-4)[Fuc(a1-3)]GlcNAc(b1-3)Gal(b1-4)[Fuc(a1-3)]GlcNAc
How it was run: as §1

[11] = target: Neu5Ac(a2-3)Gal(b1-4)[Fuc(a1-3)]GlcNAc(b1-3)GalNAc
How it was run: as §1

[12] = target: Neu5Ac(a2-3)Gal(b1-4)[Fuc(a1-3)]GlcNAc(b1-6)[Gal(b1-3)]GalNAc
How it was run: as §1

[13] = target: Neu5Ac(a2-3)Gal(b1-4)[Fuc(a1-3)]GlcNAc(b1-6)[Neu5Ac(a2-3)Gal(b1-3)]GalNAc
How it was run: as §1

[14] = target: Neu5Ac(a2-3)Gal(b1-4)[Fuc(a1-3)]GlcNAc6S
How it was run: as §1

[15] = target: Neu5Ac(a2-3)Gal6S(b1-4)GlcNAc
How it was run: as §1

[16] = target: Neu5Ac(a2-3)Gal6S(b1-4)[Fuc(a1-3)]GlcNAc
How it was run: as §1

Neu5Ac(a2-3)GalNAc = target: Neu5Ac(a2-3)GalNAc
How it was run: as §1

[17] = target: Neu5Ac(a2-3)GalNAc(b1-4)GlcNAc
How it was run: as §1

[18] = target: Neu5Ac(a2-3)[GalNAc(b1-4)]Gal(b1-4)Glc
How it was run: as §1

[19] = target: Neu5Ac(a2-3)[GalNAc(b1-4)]Gal(b1-4)GlcNAc
How it was run: as §1

[20] = target: Neu5Ac(a2-3)[GalNAc(b1-4)]Gal(b1-4)GlcNAc(b1-3)GalNAc
How it was run: as §1

[21] = target: Neu5Ac(a2-3)[Neu5Ac(a2-6)]GalNAc
How it was run: as §1

Neu5Ac(a2-6)Gal = target: Neu5Ac(a2-6)Gal
How it was run: as §1

Neu5Ac(a2-6)Gal(b1-4)Glc = target: Neu5Ac(a2-6)Gal(b1-4)Glc
How it was run: as §1

[22] = target: Neu5Ac(a2-6)Gal(b1-4)GlcNAc
How it was run: as §1

[23] = target: Neu5Ac(a2-6)Gal(b1-4)GlcNAc(b1-2)Man(a1-3)Man(b1-4)GlcNAc(b1-4)GlcNAc
How it was run: as §1

[24] = target: Neu5Ac(a2-6)Gal(b1-4)GlcNAc(b1-2)Man(a1-3)[Gal(b1-4)GlcNAc(b1-2)Man(a1-6)]Man(b1-4)GlcNAc(b1-4)GlcNAc
How it was run: as §1

[25] = target: Neu5Ac(a2-6)Gal(b1-4)GlcNAc(b1-2)Man(a1-3)[GlcNAc(b1-2)Man(a1-6)]Man(b1-4)GlcNAc(b1-4)GlcNAc
How it was run: as §1

[26] = target: Neu5Ac(a2-6)Gal(b1-4)GlcNAc(b1-2)Man(a1-3)[GlcNAc(b1-2)Man(b1-4)GlcNAc(b1-2)Man(a1-6)]Man(b1-4)GlcNAc(b1-4)GlcNAc
How it was run: as §1

[27] = target: Neu5Ac(a2-6)Gal(b1-4)GlcNAc(b1-2)Man(a1-3)[Man(a1-6)]Man(b1-4)GlcNAc(b1-4)GlcNAc
How it was run: as §1

[28] = target: Neu5Ac(a2-6)Gal(b1-4)GlcNAc(b1-2)Man(a1-3)[Neu5Ac(a2-6)Gal(b1-4)GlcNAc(b1-2)Man(a1-6)]Man(b1-4)GlcNAc(b1-4)GlcNAc
How it was run: as §1

[29] = target: Neu5Ac(a2-6)Gal(b1-4)GlcNAc(b1-2)Man(a1-6)Man(b1-4)GlcNAc(b1-4)GlcNAc
How it was run: as §1

[30] = target: Neu5Ac(a2-6)Gal(b1-4)GlcNAc(b1-2)Man(a1-6)[Gal(b1-4)GlcNAc(b1-2)Man(a1-3)]Man(b1-4)GlcNAc(b1-4)GlcNAc
How it was run: as §1

[31] = target: Neu5Ac(a2-6)Gal(b1-4)GlcNAc(b1-2)Man(a1-6)[GlcNAc(b1-2)Man(a1-3)]Man(b1-4)GlcNAc(b1-4)GlcNAc
How it was run: as §1

[32] = target: Neu5Ac(a2-6)Gal(b1-4)GlcNAc(b1-2)Man(a1-6)[Man(a1-3)]Man(b1-4)GlcNAc(b1-4)GlcNAc
How it was run: as §1

[33] = target: Neu5Ac(a2-6)Gal(b1-4)GlcNAc(b1-3)Gal(b1-3)GlcNAc
How it was run: as §1

[34] = target: Neu5Ac(a2-6)Gal(b1-4)GlcNAc(b1-3)Gal(b1-4)GlcNAc
How it was run: as §1

[35] = target: Neu5Ac(a2-6)Gal(b1-4)GlcNAc(b1-3)Gal(b1-4)GlcNAc(b1-3)Gal(b1-4)GlcNAc
How it was run: as §1

[36] = target: Neu5Ac(a2-6)Gal(b1-4)GlcNAc(b1-3)Gal(b1-4)[Fuc(a1-3)]GlcNAc(b1-3)Gal(b1-4)[Fuc(a1-3)]GlcNAc
How it was run: as §1

[37] = target: Neu5Ac(a2-6)Gal(b1-4)GlcNAc(b1-3)GalNAc
How it was run: as §1

[38] = target: Neu5Ac(a2-6)Gal(b1-4)GlcNAc6S
How it was run: as §1

Neu5Ac(a2-6)GalNAc = target: Neu5Ac(a2-6)GalNAc
How it was run: as §1

[39] = target: Neu5Ac(a2-6)GalNAc(b1-4)GlcNAc
How it was run: as §1

[40] = target: Neu5Ac(a2-6)GlcNAc(b1-4)GlcNAc
How it was run: as §1

[41] = target: Neu5Ac(a2-6)GlcNAc(b1-4)GlcNAc(b1-4)GlcNAc
How it was run: as §1

B1: ZG-16 (Homo sapiens), O60844 (protein)
chain: IQARSSSYSGEYGSGGGKRFSHSGNQLDGPITALRVRVNTYYIVGLQVRYGKVWSDYVGGRNGDLEEIFLHPGESVIQVSGKYKWYLKKLVFVTDKGRYLSFGKDSGTSFNAVPLHPNTVLRFISGRSGSLIDAIGLHWDVYPTSCSRCSRGSDDDDKAEPRGPTIKPCPPCKCPAPNLLGGPSVFIFPPKIKDVLMISLSPIVTCVVVDVSEDDPDVQISWFVNNVEVHTAQTQTHREDYNSTLRVVSALPIQHQDWMSGKEFKCKVNNKDLPAPIERTISKPKGSVRAPQVYVLPPPEEEMTKKQVTLTCMVTDFMPEDIYVEWTNNGKTELNYKNTEPVLDSDGSYFMYSKLRVEKKNWVERNSYSCSVVHEGLHNHHTTKSFSRTPGKRTYHHHHHHARKLTR
- glycan array binding signal (z-score) [1]: -0.211
- glycan array binding signal (z-score) [2]: -0.183
- glycan array binding signal (z-score) [3]: -0.168
- glycan array binding signal (z-score) [4]: -0.205
- glycan array binding signal (z-score) [5]: -0.202
- glycan array binding signal (z-score) [6]: -0.16
- glycan array binding signal (z-score) [7]: -0.19
- glycan array binding signal (z-score) [8]: -0.127
- glycan array binding signal (z-score) [9]: -0.2
- glycan array binding signal (z-score) [10]: -0.204
- glycan array binding signal (z-score) [11]: -0.062
- glycan array binding signal (z-score) [12]: -0.204
- glycan array binding signal (z-score) [13]: -0.07
- glycan array binding signal (z-score) [14]: -0.169
- glycan array binding signal (z-score) [15]: -0.046
- glycan array binding signal (z-score) [16]: -0.194
- glycan array binding signal (z-score) (Neu5Ac(a2-3)GalNAc): -0.218
- glycan array binding signal (z-score) [17]: -0.229
- glycan array binding signal (z-score) [18]: -0.21
- glycan array binding signal (z-score) [19]: -0.173
- glycan array binding signal (z-score) [20]: -0.178
- glycan array binding signal (z-score) [21]: -0.228
- glycan array binding signal (z-score) (Neu5Ac(a2-6)Gal): -0.225
- glycan array binding signal (z-score) (Neu5Ac(a2-6)Gal(b1-4)Glc): -0.175
- glycan array binding signal (z-score) [22]: -0.173
- glycan array binding signal (z-score) [23]: -0.203
- glycan array binding signal (z-score) [24]: -0.241
- glycan array binding signal (z-score) [25]: -0.185
- glycan array binding signal (z-score) [26]: -0.177
- glycan array binding signal (z-score) [27]: -0.148
- glycan array binding signal (z-score) [28]: -0.164
- glycan array binding signal (z-score) [29]: -0.209
- glycan array binding signal (z-score) [30]: -0.245
- glycan array binding signal (z-score) [31]: -0.227
- glycan array binding signal (z-score) [32]: -0.222
- glycan array binding signal (z-score) [33]: -0.176
- glycan array binding signal (z-score) [34]: -0.213
- glycan array binding signal (z-score) [35]: -0.182
- glycan array binding signal (z-score) [36]: -0.129
- glycan array binding signal (z-score) [37]: -0.181
- glycan array binding signal (z-score) [38]: -0.211
- glycan array binding signal (z-score) (Neu5Ac(a2-6)GalNAc): -0.229
- glycan array binding signal (z-score) [39]: -0.162
- glycan array binding signal (z-score) [40]: -0.218
- glycan array binding signal (z-score) [41]: -0.207
